# Data from PubChem BioAssay (Tox21).
# Several values for one entry are separate records, joined by “and”; a condition that tells them apart may be missing. Equal values may be shown once. The inconclusive results got no clear call from the source; some entries with a clear call stand among them for comparison. For part of these data: Potencies of inconclusive entries are doubtful fits and often do not repeat. Activity calls are given as the source filed them. Unless noted, calls come from the whole dose curve; as a rule, active = well fitted curve in the direction sought with a large enough effect in the repeat runs; inconclusive = weak or mixed curves; inactive = no such curve, though single readings can be large; an effect the other way counts as inactive or inconclusive.
# Columns and labels:
# [1] = target: Peroxisome proliferator-activated receptor gamma (Homo sapiens) (UniProt P37231); assay: qHTS assay to identify small molecule antagonists of the peroxisome proliferator-activated receptor gamma (PPARg) signaling pathway (AID 743191; calls by dose curve; note: nearly all actives have a fitted effect of over 30% in size; for ratio activity, negative = inhibition: % is set by controls: 0 for no effect and ±100 for the full control effect); conditions: HEK293H PPARg-UAS-bla, beta-lactamase ratio, antagonist, 17 h; ratio activity, negative = inhibition: at 62.6 µM (top of the series) unless noted
# Method in brief: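 GeneBLAzer PPARg UAS-bla HEK293H cells carrying a UAS-driven beta-lactamase reporter were plated at 3000 cells/well, preincubated 5 h at 37C, then given compound for 17 h at 37C; LiveBLAzer B/G FRET substrate was read after 1 h at room temperature.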
# [2] = qHTS assay to identify small molecule antagonists of the peroxisome proliferator-activated receptor gamma (PPARg) signaling pathway - cell viability counter screen (AID 743194); conditions: PPARg-bla HEK293H viability, CellTiter-Glo luminescence, 17 h, co-treated with 50 nM rosiglitazone; activity change, negative = cytotoxicity: at 62.6 µM (top of the series) unless noted; note: nearly all actives have a fitted effect of over 55% in size
# Method in brief: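 PPARg-UAS-bla HEK293H cells were plated, rested 5 h at 37 C, then treated with compounds plus rosiglitazone (50 nM final) for 17 h at 37 C; viability was then read by CellTiter-Glo luminescence after 30 min at room temperature.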
# [3] = qHTS assay for small molecule agonists of the antioxidant response element (ARE) signaling pathway (AID 743202; active = well fitted activation curve with a large enough effect in the signal ratio in the repeat runs, not every such curve was filed as active; inconclusive = weak or mixed curves, or effect the other way; inactive = no such curve, though single readings can be large or run the other way; the % refers to the signal ratio); conditions: HepG2 ARE-bla reporter, beta-lactamase FRET, 16 h; activation: at 73.3 µM (top of the series) unless noted
# Method in brief: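 Read-out: LiveBLAzer B/G FRET substrate fluorescence after 2 h at room temperature, following 16 h compound treatment at 37 C of HepG2 cells carrying an ARE-driven beta-lactamase reporter.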
# [4] = qHTS assay for small molecule activators of the heat shock response signaling pathway (AID 743210; active = well fitted activation curve with a large enough effect in the signal ratio in the repeat runs, with a control signal flat, not every such curve was filed as active; inconclusive = weak or mixed curves; the % refers to the signal ratio); conditions: HeLa HSE-bla reporter, beta-lactamase ratio, 5 h; activation: at 62.6 µM (top of the series) unless noted
# Method in brief: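 HSE-bla HeLa cells (beta-lactamase reporter under heat shock response elements) were exposed to compounds for 5 h at 37 C, then loaded with LiveBLAzer B/G FRET substrate for 2.5 h at room temperature before fluorescence reading.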
# [5] = qHTS assay to identify small molecule agonists of the peroxisome proliferator-activated receptor delta (PPARd) signaling pathway - cell viability counter screen (AID 743211); conditions: PPARd-bla HEK293H viability, CellTiter-Glo luminescence, 17 h; activity change, negative = cytotoxicity: at 62.6 µM (top of the series) unless noted; note: nearly all actives have a fitted effect of over 55% in size
# Method in brief: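 Tox21 library compounds, delivered in DMSO, were incubated 17 h with PPARd-bla HEK293H cells; cytotoxicity was taken from CellTiter-Glo luminescence read 30 min after reagent addition.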
# [6] = target: Peroxisome proliferator-activated receptor delta (Homo sapiens) (UniProt Q03181); assay: qHTS assay to identify small molecule agonists of the peroxisome proliferator-activated receptor delta (PPARd) signaling pathway (AID 743212; calls by dose curve; for activation: % is set by controls: 0 for no effect and ±100 for the full control effect); conditions: HEK293H PPARd-UAS-bla, beta-lactamase FRET ratio, 17 h; activation: at 62.6 µM (top of the series) unless noted
# Method in brief: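 GeneBLAzer PPARd UAS-bla HEK293H cells (beta-lactamase reporter under UAS control), plated and rested 5 h at 37 C, then exposed to compounds in DMSO at 37 C; LiveBLAzer B/G FRET substrate added, 2 h room temperature, fluorescence read.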
# [7] = qHTS assay to identify small molecule antagonists of the peroxisome proliferator-activated receptor delta (PPARd) signaling pathway - cell viability counter screen (AID 743213); conditions: PPARd-bla HEK293H viability, CellTiter-Glo luminescence, 17 h; viability change, negative = cytotoxic: at 62 µM (top of the series) unless noted; note: nearly all actives have a fitted effect of over 50% in size
# Method in brief: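 Same-well viability: cells pre-incubated 5 h, dosed with compound plus 300 nM L165041, kept 17 h at 37 C, FRET substrate 2 h RT, then CellTiter-Glo 30 min RT and luminescence.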
# [8] = target: Bile acid receptor (Homo sapiens) (UniProt Q96RI1); assay: qHTS assay to identify small molecule antagonists of the farnesoid-X-receptor (FXR) signaling pathway (AID 743217; active = well fitted inhibition curve with a large enough effect in the signal ratio in the repeat runs, not every such curve was filed as active; inconclusive = weak or mixed curves, or effect the other way; inactive = no such curve, though single readings can be large or run the other way; the % refers to the signal ratio); conditions: HEK293T FXR-UAS-bla, beta-lactamase ratio, CDCA-stimulated, 16 h; activity change, negative = inhibition: at 62.6 µM (top of the series) unless noted
# Method in brief: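 Antagonist mode against 50 uM (final) chenodeoxycholic acid stimulation in FXR-bla HEK 293T cells, 16 h at 37 °C. Inhibition detected as reduced beta-lactamase activity via LiveBLAzer B/G FRET fluorescence after 2 h at room temperature.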
# [9] = qHTS assay to identify small molecule agonists of the farnesoid-X-receptor (FXR) signaling pathway - cell viability counter screen (AID 743218); conditions: FXR-bla HEK293T viability, CellTiter-Glo luminescence, 16 h; viability change, negative = cytotoxic: at 62.6 µM (top of the series) unless noted; note: nearly all actives have a fitted effect of over 45% in size
# Method in brief: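 Cytotoxicity counter-screen run in parallel, same wells: FXR-UAS-bla HEK 293T cells dosed 16 h at 37 C, viability read by CellTiter-Glo luminescence after 30 min at room temperature.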
# [10] = qHTS assay to identify small molecule antagonists of the farnesoid-X-receptor (FXR) signaling pathway - cell viability counter screen (AID 743221; active = well fitted cell-killing curve with a large enough effect in the repeat runs, not every such curve was filed as active; inconclusive = weak or mixed curves, or effect the other way; inactive = no such curve, though single readings can be large or run the other way; note: nearly all actives have a fitted effect of over 50% in size); conditions: FXR-bla HEK293T viability, CellTiter-Glo luminescence, 16 h; activity change, negative = cytotoxicity: at 62.6 µM (top of the series) unless noted
# Method in brief: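 Cytotoxicity is taken from ATP luminescence (CellTiter-Glo, 30 min, room temperature) in FXR-bla HEK 293T cells previously incubated 16 h at 37 C with compound and chenodeoxycholic acid at 50 uM final.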
# [11] = target: Vitamin D3 receptor (Homo sapiens) (UniProt P11473); assay: qHTS assay to identify small molecule agonists of the vitamin D receptor (VDR) signaling pathway (AID 743222; calls by dose curve; for activation: % is set by controls: 0 for no effect and ±100 for the full control effect); conditions: HEK293T VDR-UAS-bla, beta-lactamase FRET ratio, 16 h
# Method in brief: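 Quantitative HTS agonist-mode screen: compounds in DMSO were pin-transferred onto VDR-bla cells and incubated 16 h at 37C, 5% CO2. Reporter activity was detected with LiveBLAzer B/G FRET substrate after 2 h at room temperature.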
# [12] = qHTS assay to identify small molecule agonists of the vitamin D receptor (VDR) signaling pathway - cell viability counter screen (AID 743224); conditions: VDR-bla HEK293T viability, CellTiter-Glo luminescence, 16 h; activity change, negative = cytotoxicity: at 62.6 µM (top of the series); note: nearly all actives have a fitted effect of over 50% in size
# Method in brief: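 Viability is measured in the same wells as the VDR-bla reporter assay: after 16 h compound treatment and 2 h substrate loading, CellTiter-Glo is added and luminescence read 30 min later.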
# [13] = target: Vitamin D3 receptor (Homo sapiens) (UniProt P11473); assay: qHTS assay to identify small molecule antagonists of the vitamin D receptor (VDR) signaling pathway (AID 743223; active = well fitted inhibition curve with a large enough effect in the signal ratio in the repeat runs, not every such curve was filed as active; inconclusive = weak or mixed curves, or effect the other way; inactive = no such curve, though single readings can be large or run the other way; the % refers to the signal ratio; for activity change, negative = inhibition: % is set by controls: 0 for no effect and ±100 for the full control effect); conditions: VDR-UAS-bla HEK293T, beta-lactamase FRET ratio, 16 h; activity change, negative = inhibition: at 61 µM (top of the series) unless noted
# Method in brief: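 Quantitative HTS in VDR-bla reporter cells stimulated with 1alpha,25-dihydroxyvitamin D3, 3 nM final. Compound exposure 16 h, 37C, 5% CO2. Read-out: beta-lactamase FRET substrate fluorescence, 2 h RT.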
# [14] = qHTS assay for small molecule agonists of the antioxidant response element (ARE) signaling pathway - cell viability counter screen (AID 743203; calls by dose curve; note: nearly all actives have a fitted effect of over 55% in size); conditions: ARE-bla HepG2 viability, CellTiter-Glo luminescence, 16 h; viability change, negative = cytotoxic: at 73.3 µM (top of the series)
# Method in brief: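 Seeded at 2,000 cells/well, ARE-bla HepG2 cells were incubated 5 hrs before compound addition. After 16 hrs of treatment at 37C with 5% CO2, CellTiter-Glo reagent was added and luminescence read 30 min later.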
# [15] = qHTS assay for small molecule activators of the heat shock response signaling pathway - cell viability counter screen (AID 743209); conditions: HSE-bla HeLa viability, CellTiter-Glo luminescence, 5 h; activity change, negative = cytotoxicity: at 62.6 µM (top of the series) unless noted; note: nearly all actives have a fitted effect of over 50% in size
# Method in brief: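 First, HSE-bla HeLa cells were seeded at 1500 cells/well and kept overnight at 37 C. Next, compounds were pinned in and incubated 5 h. After the FRET substrate step, CellTiter-Glo was added and luminescence read 30 min later.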
# [16] = target: Peroxisome proliferator-activated receptor delta (Homo sapiens) (UniProt Q03181); assay: qHTS assay to identify small molecule antagonists of the peroxisome proliferator-activated receptor delta (PPARd) signaling pathway (AID 743215; active = well fitted inhibition curve with a large enough effect in the signal ratio in the repeat runs, not every such curve was filed as active; inconclusive = weak or mixed curves, or effect the other way; inactive = no such curve, though single readings can be large or run the other way; the % refers to the signal ratio;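 note: cells stimulated with agonist L165041 at 300 nM final during compound exposure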); conditions: HEK293H PPARd-UAS-bla, beta-lactamase FRET ratio, antagonist, 17 h; ratio activity, negative = inhibition: at 62 µM (top of the series) unless noted
# Method in brief: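 Inhibition of L165041-driven (300 nM final) PPARd signaling is scored in HEK293H UAS-bla cells. Exposure lasts 17 h at 37 C; beta-lactamase activity is then read by FRET substrate fluorescence after 2 h at room temperature.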
# [17] = activation: at 63.5 µM (top of the series) unless noted
# Potency is the fitted concentration of half-maximal effect; tags give direction and shape of the fitted curve or compound fluorescence and quenching.
# UniProt Q96RI1, sequence (Q96RI1 whole entry, looked up): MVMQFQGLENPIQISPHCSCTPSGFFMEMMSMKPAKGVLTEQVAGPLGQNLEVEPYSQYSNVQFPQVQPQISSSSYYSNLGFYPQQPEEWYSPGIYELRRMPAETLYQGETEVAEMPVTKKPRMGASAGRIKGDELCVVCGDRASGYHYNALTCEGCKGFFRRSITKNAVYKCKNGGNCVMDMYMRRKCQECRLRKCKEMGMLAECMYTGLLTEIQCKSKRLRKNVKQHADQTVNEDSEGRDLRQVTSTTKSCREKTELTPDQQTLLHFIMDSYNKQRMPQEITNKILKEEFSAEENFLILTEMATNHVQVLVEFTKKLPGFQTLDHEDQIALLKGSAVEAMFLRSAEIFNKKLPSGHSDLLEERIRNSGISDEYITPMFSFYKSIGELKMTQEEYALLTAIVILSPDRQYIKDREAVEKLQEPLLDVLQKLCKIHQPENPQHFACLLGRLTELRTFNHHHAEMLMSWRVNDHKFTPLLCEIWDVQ
# UniProt P37231, sequence (P37231 whole entry, looked up): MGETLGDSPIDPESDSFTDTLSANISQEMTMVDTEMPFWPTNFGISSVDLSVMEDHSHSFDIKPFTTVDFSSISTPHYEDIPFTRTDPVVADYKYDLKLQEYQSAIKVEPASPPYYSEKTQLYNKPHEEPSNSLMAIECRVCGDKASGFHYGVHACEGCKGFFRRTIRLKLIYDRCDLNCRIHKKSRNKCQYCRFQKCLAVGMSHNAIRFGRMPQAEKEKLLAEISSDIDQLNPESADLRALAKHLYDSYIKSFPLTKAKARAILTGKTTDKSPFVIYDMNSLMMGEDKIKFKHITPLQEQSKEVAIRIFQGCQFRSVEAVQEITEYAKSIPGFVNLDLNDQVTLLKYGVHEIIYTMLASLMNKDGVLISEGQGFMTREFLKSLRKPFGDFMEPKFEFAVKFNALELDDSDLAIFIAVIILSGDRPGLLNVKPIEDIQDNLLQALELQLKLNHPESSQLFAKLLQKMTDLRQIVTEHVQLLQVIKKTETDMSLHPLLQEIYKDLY
# UniProt Q03181, sequence (Q03181 whole entry, looked up): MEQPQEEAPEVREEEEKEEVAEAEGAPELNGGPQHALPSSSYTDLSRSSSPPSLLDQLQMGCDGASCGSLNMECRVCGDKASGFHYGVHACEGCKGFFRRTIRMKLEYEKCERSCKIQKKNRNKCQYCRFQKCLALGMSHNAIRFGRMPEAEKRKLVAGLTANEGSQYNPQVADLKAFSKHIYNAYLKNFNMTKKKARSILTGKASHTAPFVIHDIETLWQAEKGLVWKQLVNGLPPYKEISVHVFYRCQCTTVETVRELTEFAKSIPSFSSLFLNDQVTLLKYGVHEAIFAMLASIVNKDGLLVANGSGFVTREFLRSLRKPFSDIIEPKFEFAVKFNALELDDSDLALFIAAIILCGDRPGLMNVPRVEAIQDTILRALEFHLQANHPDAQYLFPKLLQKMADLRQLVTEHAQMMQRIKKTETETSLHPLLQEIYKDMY
# UniProt P11473, sequence (P11473 whole entry, looked up): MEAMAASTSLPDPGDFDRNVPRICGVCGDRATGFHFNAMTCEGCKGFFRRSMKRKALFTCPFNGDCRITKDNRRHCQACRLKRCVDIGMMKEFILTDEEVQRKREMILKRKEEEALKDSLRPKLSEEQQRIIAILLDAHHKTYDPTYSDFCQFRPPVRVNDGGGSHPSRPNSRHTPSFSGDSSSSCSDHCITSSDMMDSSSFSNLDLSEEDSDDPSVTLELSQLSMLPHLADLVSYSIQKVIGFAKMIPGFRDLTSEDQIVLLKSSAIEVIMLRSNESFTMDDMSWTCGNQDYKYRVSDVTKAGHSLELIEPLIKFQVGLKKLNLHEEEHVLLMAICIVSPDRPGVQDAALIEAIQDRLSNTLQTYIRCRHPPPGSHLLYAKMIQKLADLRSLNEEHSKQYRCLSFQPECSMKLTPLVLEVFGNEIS
smiles,measurement,setting,value
COC(=O)[C@H]1[C@H]2C[C@@H]3c4[nH]c5cc(OC)ccc5c4CCN3C[C@H]2C[C@@H](OC(=O)/C=C/c2ccc(O)c(OC)c2)[C@@H]1OC,Potency,[1],active: 6.68 µM
same,Potency,[2],"inconclusive: 16.8 µM [cytotoxic, partial curve]"
same,Potency,[3],inconclusive: 16.8 µM
same,Potency,[4],inconclusive: 23.7 µM
same,Potency,[5],active: 8.41 µM
same,Potency,[6],"inconclusive: 9.44 µM [rising, partial curve]"
same,Potency,[7],active: 10.6 µM
same,Potency,[8],inconclusive: 29.8 µM
same,Potency,[9],active: 8.41 µM
same,Potency,[10],active: 18.8 µM
same,Potency,[11]; [17],"inconclusive: 13.3 µM [rising, full curve, poor fit]"
same,Potency,[12],"inconclusive: 11.9 µM [cytotoxic, full curve]"
C/C=C(/C(=C/C)c1ccc(O)cc1)c1ccc(O)cc1,Potency,[1],active: 29.8 µM
same,Potency,[2],"inconclusive: 26.6 µM [cytotoxic, partial curve]"
same,Potency,[3],active: 15 µM
same,Potency,[5],"inconclusive: 29.8 µM [cytotoxic, single point]"
same,Potency,[7],"inconclusive: 33.5 µM [cytotoxic, single point]"
same,Potency,[8],"inconclusive: 13.3 µM [rising, full curve, poor fit]"
same,Potency,[9],"inconclusive: 0.298 µM [rising, single point]"
same,Potency,[10],"inconclusive: 33.5 µM [falling, single point]"
same,Potency,[13],"inconclusive: 15.1 µM [inhibitor, partial curve, poor fit]"
CCCCCCCCCCCCCCCC[N+](C)(C)CCN(Cc1ccc(OC)cc1)c1ncccn1,Potency,[1],"inconclusive: 33.5 µM [cytotoxic, single point]"
same,Potency,[2],active: 26.6 µM
same,Potency,[3],"inconclusive: 26.6 µM [falling, partial curve]"
same,Potency,[14],"inconclusive: 33.5 µM [cytotoxic, single point]"
same,Potency,[15],"inconclusive: 33.5 µM [cytotoxic, single point]"
same,Potency,[5],active: 13.3 µM
same,Potency,[6],"inconclusive: 5.31 µM [rising, partial curve]"
same,Potency,[7],"inconclusive: 26.6 µM [cytotoxic, partial curve, poor fit]"
same,Potency,[8],"inconclusive: 33.5 µM [inhibitor, single point]"
same,Potency,[9],active: 29.8 µM
same,Potency,[10],active: 26.6 µM
same,activation,[11]; [17],inconclusive: -27.8%
same,Potency,[13],active: 21.3 µM
same,Potency,[12],"inconclusive: 33.5 µM [cytotoxic, single point]"
CN1CCc2cccc3c2[C@H]1Cc1ccc(O)c(O)c1-3,Potency,[1],"inconclusive: 49.5 µM [inhibitor, partial curve, poor fit] and active: 6.49 µM and inconclusive: 9.44 µM [cytotoxic, partial curve, poor fit]"
same,Potency,[2],"active: 44.1 µM and active: 3.65 µM and inconclusive: 29.8 µM [cytotoxic, partial curve]"
same,Potency,[14],"inconclusive: 33.5 µM [cytotoxic, single point]"
same,Potency,[15],"inconclusive: 55.5 µM [cytotoxic, single point]"
same,Potency,[5],active: 49.5 µM and active: 10.3 µM and active: 21.1 µM
same,activation,[6],inconclusive: 7.12% [at 81.1 µM]
same,Potency,[7],"active: 49.5 µM and active: 18.3 µM and inconclusive: 29.8 µM [cytotoxic, single point]"
same,Potency,[16],"active: 55.5 µM and active: 10.3 µM and inconclusive: 29.8 µM [inhibitor, single point]"
same,Potency,[8],"active: 39.3 µM and active: 18.3 µM and inconclusive: 33.5 µM [inhibitor, single point]"
same,Potency,[9],"inconclusive: 31.2 µM [cytotoxic, partial curve, poor fit] and inconclusive: 7.28 µM [cytotoxic, partial curve, poor fit] and inconclusive: 21.1 µM [cytotoxic, partial curve]"
same,activation,[11]; at 63.5 µM (top of the series),inconclusive: -19%
same,activation,[11]; at 81.1 µM (top of the series),inconclusive: 4.68%
same,Potency,[13],inconclusive: 55.5 µM
same,"activity change, negative = inhibition",[13],inconclusive: -77.6% [at 28.5 µM]
same,Potency,[12],active: 49.5 µM and active: 16.3 µM and active: 26.6 µM
CCCCC[C@H](O)/C=C/[C@H]1[C@H](O)CC(=O)[C@@H]1C/C=C\CCCC(=O)O,Potency,[1],inactive
same,Potency,[2],inactive
same,Potency,[3],"inconclusive: 26.6 µM [rising, partial curve, poor fit]"
same,Potency,[5],inactive
same,activation,[6],inconclusive: -5.6%
same,Potency,[11]; [17],inactive
same,"activity change, negative = inhibition",[13],inconclusive: 12.5%
CN1C(=O)c2ccccc2C1=O,Potency,[1],inconclusive: 27.3 µM [activator]
same,Potency,[2],"inconclusive: 6.16 µM [rising, full curve, poor fit]"
same,Potency,[3],"inconclusive: 34.4 µM [rising, partial curve, poor fit]"
same,Potency,[15],"inconclusive: 0.0243 µM [rising, full curve, poor fit]"
same,Potency,[4],inconclusive: 26.6 µM [fluorescent]
same,Potency,[5],"inconclusive: 7.69 µM [cytotoxic, full curve, poor fit]"
same,Potency,[6],"inconclusive: 21.9 µM [rising, single point]"
same,Potency,[7],"inconclusive: 0.0616 µM [cytotoxic, full curve, poor fit]"
same,Potency,[9],"inconclusive: 4.33 µM [rising, partial curve, poor fit]"
same,Potency,[10],"inconclusive: 48.5 µM [falling, partial curve, poor fit]"
same,activation,[11]; [17],inconclusive: 3.41%
same,"activity change, negative = inhibition",[13],inconclusive: -0.371%
same,Potency,[12],"inconclusive: 54.9 µM [cytotoxic, single point]"
NC(=O)c1ccccc1O,Potency,[1],inactive
same,Potency,[2],"inconclusive: 53.4 µM [rising, single point]"
same,activation,[3],inconclusive: 36% and inconclusive: 17.3%
same,"activity change, negative = inhibition",[8],inconclusive: 2.83%
same,Potency,[9],"inconclusive: 21.3 µM [rising, partial curve, poor fit]"
